According to patent publication US12721899B2, “Pharmaceutical compositions comprising an anti-claudin 18.2 antibody-drug conjugate and method of use thereof to treat a tumor or cancer” (JIANGSU HENGRUI PHARMACEUTICALS CO., LTD., priority 2020, dated 2026):
Marks after values point to notes of the source that are not given here.

B1: h1902-5: humanized antibody of mAb1902: light chain L12 (SEQ ID NO: 47), heavy chain H11 (SEQ ID NO: 49) (antibody)
heavy: EVQLVQSGAEVKKPGASVKVSCKASGYTFTSYWMHWVRQAPGQRLEWMGMIHPNSGSTNYNEKFKGRVTITRDTSASTAYMELSSLRSEDTAVYYCARLKTGNSFDYWGQGTTVTVSS[… human IgG1 constant region …]
light: DIVLTQSPDSLAVSLGERATINCKSSQSLLNSGNQKNYLTWYQQKPGQPPKLLIYWASTRESGVPDRFSGSGSGTDFTLTISSLQAEDVAVYYCQNAYTYPFTFGQGTKLEIKRTVAAPSVFIFPPSDEQLKSGTASVVCLLNNFYPREAKVQWKVDNALQSGNSQESVTEQDSKDSTYSLSSTLTLSKADYEKHKVYACEVTHQGLSSPVTKSFNRGEC
modifications: Synthetic Sequence_H11; Synthetic Sequence_L12
B2: h1901-11: humanized antibody of mAb1901: light chain L3 (SEQ ID NO: 41), heavy chain H3 (SEQ ID NO: 44) (antibody)
heavy: EVQLVESGGGLVQPGGSLRLSCAASGFTFSDYGIHWVRQAPGKGLEWIAYISRGSSTIYYADTVKGRFTISRDNAKNSLYLQMTSLRAEDTAVYYCARGGYDTRNAMDYWGQGTTVTVSS[… human IgG1 constant region …]
light: DIVMTQSPDSLAVSLGERATISCKSSQSLLNSGNQKNYLAWYQQKPGQPPKLLIYGASTRASGVPDRFSGSGSGTDFTLTISSLQAEDVAIYHCQNDLYYPLTFGQGTKLEIKRTVAAPSVFIFPPSDEQLKSGTASVVCLLNNFYPREAKVQWKVDNALQSGNSQESVTEQDSKDSTYSLSSTLTLSKADYEKHKVYACEVTHQGLSSPVTKSFNRGEC
modifications: Synthetic Sequence_H3; Synthetic Sequence_L3
B3: ADC-2 (conjugate)
heavy: B2 heavy
light: B2 light

Assays:
[1] = tested on: NUGC4 cells expressing Claudin18.2 at low levels; test: ADCC effect evaluation of antibodies (low expression); type: cell-based, human; settings: in words; low levels (FIG. 3A)
Procedure: (§1) A variety of NUGC4 cells (expressing Claudin 18.2 at high, moderate and low levels) were digested, centrifuged at 1000 rpm, resuspended, and counted. The cells were resuspended at a density of 3×10^5 cells/mL in phenol red-free RPMI 1640 (GIBCO™, 11835-030) supplemented with 10% FBS (New Zealand ultra-low IgG fetal bovine serum, GIBCO™, 1921005PJ). Cells were added to a 96-well plate (CORNING®, 3903) at 25 μL/well (7500 cells/well). An antibody was diluted into the phenol red-free medium to obtain a 3× antibody dilution, which was then added to the cell plate at 25 μL/well. The plate was incubated in a 37° C., 5% CO2 incubator for 0.5 h.
(§2) Effector cells (FcrR3A-V158-NFAT-RE-Jurkat cells) were harvested, centrifuged at 1000 rpm, resuspended, and counted. The cells were resuspended at a density of 3×10^6 cells/mL in phenol red-free RPMI 1640 supplemented with 10% FBS (New Zealand ultra-low IgG fetal bovine serum), and then were added to the plate at 25 μL/well (7.5×10^4 cells/well). The plate was incubated in a 37° C., 5% CO2 incubator for 6 h.
(§3) BRIGHT-GLO™ (PROMEGA™, E2610) was added to the plate at 75 μL/well, and the chemical luminescence was detected using a microplate reader (PerkinElmer, VITOR3).

[2] = tested on: NUGC4 cells expressing Claudin18.2 at moderate levels; test: ADCC effect evaluation of antibodies (moderate expression); type: cell-based, human; settings: in words; moderate levels (FIG. 3B)
Procedure: as §1, §2, §3

[3] = tested on: NUGC4 cells expressing Claudin18.2 at high levels; test: ADCC effect evaluation of antibodies (high expression); type: cell-based, human; settings: in words; high levels (FIG. 3C)
Procedure: as §1, §2, §3

[4] = tested on: NUGC4-claudin18.2 moderate expression cells; test: In vitro cell killing experiment of ADCs (CellTiter-Glo), moderate expression; type: cell-based, human; settings: 6 days
Procedure: CELLTITER-GLO® luminescence cell viability assays were used to test ADC molecules for the in vitro killing effects on the human gastric cancer cell strain in this experiment. On day 1, NUGC4-claudin 18.2 low expression, NUGC4-claudin 18.2 moderate expression and NUGC4-claudin18.2 high expression cells were harvested, adjusted to density 2.5×10^4/mL, and added to a 96-well white transparent plate at 90 μL/well, with about 2500 cells per well. The cells were cultured overnight in a 37° C., 5% CO2 incubator. On day 2, samples were 4× diluted serially from an initial concentration of 5 μM in a U-bottom 96-well plate to obtain 9 concentration points, and the diluted samples were added to the cell plate at 10 μL/well. The cells were cultured at 37° C. with 5% CO2 for 6 days. On day 8, the cell culture plate was taken out, and CELLTITER-GLO® Reagent was added at 50 μL/well. The plate was let stand at room temperature for 2 to 3 min and analyzed on a PHERAstar FS microplate reader for fluorescence readings. Data analysis was performed using GraphPad Prism software.

[5] = tested on: human gastric cancer cells NUGC4 (expressing Claudin18.2 at moderate levels); test: In vivo efficacy of ADC molecules, subcutaneous xenograft; set-up: species or system Balb/c nude mice; settings: intraperitoneal; for Mean tumor volume (mm^3) D 0: day 0 (baseline); for Mean tumor volume (mm^3) D 32 / % tumor inhibition rate D 32: day 32; for % tumor inhibition rate D 32: p < 0.01 vs. blank control group; for Relative tumor volume D 0: RTV=VT/V0
Procedure: Balb/c nude mice were subcutaneously inoculated at the right flank with human gastric cancer cells NUGC4 (expressing Claudin18.2 at moderate levels) cells (5×10^6, containing 50% matrigel/mouse). The mice were divided into a total of 8 groups of 8 on day 0. The mean tumor volume was about 84.41 mm^3.
Each mouse was intraperitoneally injected with ADC at 0.1 mL/10 g body weight on days 0, 4 and 11, making a total of 3 injections.
Each mouse was intraperitoneally injected with ADC at 0.1 mL/10 g body weight from the day of grouping at intervals of 5 days, and a total of 4 injections were given.
The tumor volumes and body weights were measured twice a week and the results were recorded.
Excel 2003 statistical software was used. The mean values were calculated as avg; the SD values were calculated as STDEV; the SEM values were calculated as STDEV/SQRT; and the inter-group difference P-value was calculated as TTEST.
Tumor volume (V) was calculated as: V=½×Llong×Lshort^2
Relative volume (RTV)=VT/V0
Tumor inhibition rate (%)=(CRTV−TRTV)/CRTV (%) • where V0 and VT are the tumor volume at the beginning of the experiment (the day of first administration is defined as day 0) and the tumor volume at the end of the experiment, respectively; CRTV and TRTV are the relative tumor volumes of the blank control group (Vehicle) and the experimental groups, respectively, at the end of the experiment.

Molecule | ADCC activity [1] | ADCC activity [2] | ADCC activity [3] | Emax [4] | Mean tumor volume (mm^3) D 0 ([5]; 3 mpk) | Mean tumor volume (mm^3) D 32 ([5]; 3 mpk) | % tumor inhibition rate D 32 ([5]; 3 mpk) | Relative tumor volume D 0 ([5]; 3 mpk) | Mean tumor volume (mm^3) D 0 ([5]; 10 mpk) | Mean tumor volume (mm^3) D 32 ([5]; 10 mpk) | % tumor inhibition rate D 32 ([5]; 10 mpk) | Relative tumor volume D 0 ([5]; 10 mpk)
B1 | high ADCC activity | high ADCC activity | high ADCC activity |  |  |  |  |  |  |  |  | 
B2 | high ADCC activity | high ADCC activity | high ADCC activity |  |  |  |  |  |  |  |  | 
B3 |  |  |  | 82.3 | 84.35 mm^3 | 328.95 mm^3 | 84.45%** | 3.86 | 83.93 mm^3 | 263.13 mm^3 | 87.47%** | 3.11
